# Results published in PubChem BioAssay AID1159614 (National Center for Advancing Translational Sciences (NCATS), 2016).
# Screen size: about 45,000 compounds; about 65 (0.1%) were called active. Calls come from the whole dose curve; as a rule, active = well fitted activation curve with a large enough effect; inconclusive = small, poorly fitted or top-dose-only effect; inactive = no such curve, though single readings can be large or run the other way. Some of the results follow.
# Target: Galactocerebrosidase (Homo sapiens) (UniProt P54803)
# Chain of UniProt P54803 (P54803 whole entry, looked up): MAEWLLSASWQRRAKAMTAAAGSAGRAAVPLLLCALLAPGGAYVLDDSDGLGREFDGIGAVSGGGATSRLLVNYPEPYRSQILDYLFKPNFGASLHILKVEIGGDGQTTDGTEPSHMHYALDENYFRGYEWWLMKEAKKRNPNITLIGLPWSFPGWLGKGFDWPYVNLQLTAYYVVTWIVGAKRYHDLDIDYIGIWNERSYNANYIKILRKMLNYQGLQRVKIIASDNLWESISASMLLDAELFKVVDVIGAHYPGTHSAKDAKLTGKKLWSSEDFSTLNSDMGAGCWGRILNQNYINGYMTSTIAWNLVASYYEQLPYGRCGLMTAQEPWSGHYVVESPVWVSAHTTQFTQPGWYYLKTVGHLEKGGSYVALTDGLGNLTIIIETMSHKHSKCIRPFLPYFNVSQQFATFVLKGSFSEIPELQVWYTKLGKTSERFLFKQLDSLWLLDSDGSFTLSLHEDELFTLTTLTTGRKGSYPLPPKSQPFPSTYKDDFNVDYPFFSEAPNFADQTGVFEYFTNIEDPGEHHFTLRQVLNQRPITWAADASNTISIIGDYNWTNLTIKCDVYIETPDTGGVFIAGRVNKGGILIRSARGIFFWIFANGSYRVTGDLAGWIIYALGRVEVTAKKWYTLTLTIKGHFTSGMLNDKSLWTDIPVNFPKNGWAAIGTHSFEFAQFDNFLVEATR
# Assay: A Novel Cell-Based Assay to Identify Small Molecules for B -Galactocerebrosidase; note: 0% is about no effect; nearly all actives have a fitted effect of over 65% in size
# Details: 145M-Twi-hGALC-G270D cells (Twitcher mouse brain line with human GALC G270D), HMU-beta-Gal fluorescence, 48 h; activation: at the top concentration
# In short: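 Fluorogenic HMU-b-Gal hydrolysis (0.1 mM final, pH 5.2 citrate-phosphate with 1 mg/mL sodium taurocholate; carbonate stop buffer) measures mutant GALC activity after compound treatment of live 145M-Twi Twitcher brain cells stably carrying human GALC-G270D, with wild-type GALC line alongside; activation sought.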
row,Compound,activation
1,CCC(=O)N1CC(=O)Nc2ccc(C)cc2C1c1ccc(F)cc1 (stereo unspecified),inactive: -7.78%
2,CC(NC(C)(C)C)C(=O)c1cccc(Cl)c1 (stereo unspecified),inactive: -14.6%
3,CCc1ccc(OCC(=O)N2CCN(CCc3ccccn3)CC2)cc1,inactive: -4.58%
4,COc1ccc(-c2nc(CN3C(=O)CN=C(c4ccccc4)c4ccccc43)c(C)o2)cc1OC,inactive: -8.57%
5,O=C1CN=C(c2ccccc2)c2cc(Cl)ccc2N1Cc1ccc(Cl)cc1,inactive: -18.6%
6,Cn1c(CCCC(=O)O)nc2cc(N(CCCl)CCCl)ccc21,inactive: -6.78%
7,COc1ccccc1-n1c(/C=C/c2ccccc2)nc2ccccc2c1=O,inactive: -6.2%
8,COc1ccc(-c2nn3c(=O)cc(CN4CCN(C(=O)COc5ccc(F)cc5)CC4)nc3s2)cc1,inactive: 1.37%
9,O=C1CC[C@@]2(O)[C@H]3Cc4ccc(O)c5c4[C@@]2(CCN3CC2CC2)[C@H]1O5,inactive: -20.4%
10,NC(=O)c1cc([N+](=O)[O-])cc([N+](=O)[O-])c1,inactive: -14%
11,CN1CCN(C(=O)O[C@H]2c3nccnc3C(=O)N2c2ccc(Cl)cn2)CC1,inactive: 8.67%
12,COC1CC(=C(c2cccs2)c2cccs2)C[N+](C)(C)C1 (stereo unspecified),inactive: -10.6%
13,Cc1oc(-c2ccc(Cl)cc2)nc1CN1C(=O)CN=C(c2ccccc2)c2cc(Cl)ccc21,inactive: 0.931%
14,CC(=O)OC1(c2ccccc2)CCN(CCc2ccccc2)CC1,inactive: -3.38% [at 129 µM]
15,CCN(CC)CCc1c[nH]c2ccccc12,inactive: -5.07% [at 129 µM]
16,COC(=O)[C@@H](N)CCCN/C(N)=N/[N+](=O)[O-],inactive: -8.86%
17,O=c1c(C2CC(c3ccc(-c4ccc(Br)cc4)cc3)Cc3ccccc32)c(O)sc2ccccc12 (stereo unspecified),inactive: -9.52%
18,COc1ccc(Cl)cc1NC(=O)c1sc2nc3c(cc2c1N)N1CCC3CC1,inactive: -11.7%
19,CN[C@@H](C)[C@H](O)c1ccccc1,inactive: -15.7%
20,CCc1ccc(-n2nc(C)c3c2NC(=O)CSC3c2ccc(OC)cc2OC)cc1 (stereo unspecified),inactive: -11%
21,CCC(C(=O)Nc1ccccc1F)N1C(=O)CN=C(c2ccccc2)c2ccccc21 (stereo unspecified),inactive: -2.17%
22,CC[C@]1(O)CC[C@H]2[C@@H]3CCC4=CCCC[C@@H]4[C@H]3CC[C@@]21C,inactive: -18.3%
23,Nc1ccc(Cl)cc1,inactive: -10.6% [at 114 µM]
24,COc1c2c(cc3c1OCO3)CCN(C)C2,inactive: 1.95%

row,Compound,activation
1,CCOc1ccc(CCNC(=O)c2cc3c(-c4cccc(OC)c4)nn(C)c3s2)cc1OCC,inactive: -14.9%
2,CCOC(=O)c1ccc(NC(=O)c2cccn(Cc3ccccc3F)c2=O)cc1,inactive: -14.1%
3,ClCc1cccc(Cl)c1,inactive: -10.9%
4,O=S(=O)(O)C(F)(F)C(F)(F)C(F)(F)C(F)(F)C(F)(F)C(F)(F)C(F)(F)C(F)(F)F,inactive: -20.6% [at 114 µM]
5,N#Cc1ccccc1NC(=O)c1cccn(Cc2ccccc2)c1=O,inactive: -16%
6,Nc1ccc(Cl)cc1C(=O)c1ccccc1F,inactive: -13.5%
7,N#Cc1nn(-c2c(Cl)cc(C(F)(F)F)cc2Cl)c(N)c1S(=O)C(F)(F)F (stereo unspecified),inactive: -9.04%
8,NCC(O)c1ccc(O)cc1 (stereo unspecified),inactive: -11.6%
9,O=C(Cn1cc(C(=O)c2ccccc2)c2ccccc21)Nc1ccc(Br)cc1,inactive: -10.6%
10,COc1ccc(-c2nc(CN3C(=O)CN=C(c4ccccc4Cl)c4cc(Cl)ccc43)c(C)o2)cc1OC,inactive: -11.3%
11,CCCc1ccc(OCC(=O)Nc2ccc(Cl)cc2C(=O)c2ccccc2)cc1,inactive: -3.08%
12,CCc1ccc(-c2nc(CSCC(=O)N3CCN(c4ccc(F)cc4)CC3)c(C)o2)cc1,inactive: -30.8%
13,CN(C)CCc1c[nH]c2cccc(O)c12,inactive: -7.52% [at 114 µM]
14,Cc1cccc(CN2C(=O)CN=C(c3ccccc3)c3cc(Cl)ccc32)c1,inactive: -17.3%
15,c1ccc2c(c1)Nc1ccccc1S2,inactive
16,C[C@]12CC[C@H]3[C@@H](CC=C4C[C@@H](O)CC[C@@]43C)[C@@H]1CC[C@@H]2O,inactive: -8.91%
17,CC(C)c1ccc(NC(=O)CN2C(=O)CN=C(c3ccccc3)c3ccccc32)cc1,inactive: -7.14%
18,CC(C)(C)C(O)C(Oc1ccc(Cl)cc1)n1cncn1 (stereo unspecified),inactive: -12% [at 114 µM]
19,Clc1ccccc1N1CCNCC1,inactive: -8.3%
20,CC(=O)OCC(=O)Nc1cc(C#N)cc(NC(=O)COC(C)=O)c1Cl,inactive: -14.6%
21,COc1ccc(OCC(=O)N2CCN(CCc3ccccn3)CC2)cc1,inactive: -16.4%
22,COc1cc(CC(C)N)c(OC)cc1Br (stereo unspecified),inactive: -6.18% [at 129 µM]
23,COc1cc(CN2CCc3nc(N4CCN(c5ccccc5F)CC4)ncc3C2)ccc1OC(C)C,inactive: -22.7%
24,COP(=O)(OC)OC=C(Cl)Cl,inactive: -14.7%

row,Compound,activation
1,CC(C)C(Br)C(=O)NC(N)=O (stereo unspecified),inactive: -11.3%
2,Cc1ccc(-n2c(/C=C/c3cc(Br)cs3)nc3ccccc3c2=O)cc1C,inactive: -4.06%
3,COc1ccc(C)cc1NC(=O)c1cccn(Cc2ccccc2Cl)c1=O,inactive: 7.61%
4,N#CC(C#N)=Cc1ccc(O)c(O)c1,inactive: -3.89%
5,Cc1ccc(N2CCN(C(=O)C3CCC(CNS(=O)(=O)c4ccc(Br)s4)CC3)CC2C)cc1 (stereo unspecified),inactive: -32.1%
6,C[C@@H]1CC2=CC(=O)CC[C@@H]2[C@H]2CC[C@@]3(C)[C@@H](CC[C@]3(C)O)[C@@H]21,inactive: -11.4%
7,C=CCC1=C(C)C(OC(=O)C2C(C=C(C)C)C2(C)C)CC1=O (stereo unspecified),inactive: -7.98% [at 114 µM]
8,Cc1cccc(C)c1OCC(=O)Nc1ccc(Cl)cc1C(=O)c1ccccc1,inactive: -26.2%
9,O=C(NCCSc1c(-c2ccc(F)cc2)[nH]c2ccccc12)c1ccc(S(=O)(=O)N2CCOCC2)cc1,inactive: -44.6%
10,Cc1cccc(C)c1NC(=O)CN1CCCC1=O,inactive: -7.23%
11,O=C(COc1ccccc1[N+](=O)[O-])N1CCN(CCc2ccncc2)CC1,inactive: -1.97%
12,CCNc1nc(Cl)nc(NCC)n1,inactive: -17.6%
13,Oc1ccc2c3c1O[C@H]1[C@@H](O)C=C[C@H]4[C@@H](C2)NCC[C@@]341,inactive: -6.53% [at 129 µM]
14,CN1CCC(O)(c2ccc(F)cc2)C(C(=O)c2ccc(F)cc2)C1 (stereo unspecified),inactive: -15.6%
15,COC(=O)c1ccc(NC(C)=O)cc1OC,inactive: -12.2%
16,O=c1n(Cl)c(=O)n(Cl)c(=O)n1Cl,inactive: -16.5%
17,Cn1c(=O)n(C)c2cc(CNCCc3ccccc3F)ccc21,inactive: -19.6%
18,Cn1cc(C2=C(c3cn(C4CCN(Cc5ccccn5)CC4)c4ccccc34)C(=O)NC2=O)c2ccccc21,inactive: -9.99%
19,OCCOc1ccccc1,inactive: -10.1%
20,O=C1CC(c2ccccc2Br)c2c(c3ccccc3oc2=O)O1 (stereo unspecified),inactive: -8.32%
21,C=CCN1CC[C@]23c4c5ccc(O)c4O[C@H]2C(=O)CC[C@@]3(O)[C@H]1C5,inactive: -9.07%
22,Cc1ccc(-n2c(/C=C/c3ccccc3)nc3ccccc3c2=O)cc1Cl,inactive: -3.66%
23,Cc1oc(-c2ccccc2F)nc1CS(=O)(=O)CC(=O)N1CCN(c2cccc(C(F)(F)F)c2)CC1,inactive: -32.8%
